# Data from the supplement of paper PMC8728848.
# The list shows a part of the results.
# B1: AFCNVH (Aspergillus fumigatus) (protein)
# chain: MSLRGFHTTCDTIVLKDKHILSSRCKRPDGTYSFSEIDLNDCLGNNNGKFVWGGESFVDSASQVNLALEGGEGRPMLHAQLNDWHGSVQSASVNLGECIQNEAGGLEYMHC
# Columns and labels:
# Test in all cases: glycan array binding signal (z-score within array); higher = stronger binding
# Details in all cases: glycan notation: IUPAC condensed, linker removed
# [1] = biological target: Fuc(a1-2)Gal
# Procedure, shortened: (§1)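 From the Consortium for Functional Glycomics database, 3228 arrays were curated, keeping only those whose protein sequence was available. Binding is given as a within-array Z-score averaged across arrays sharing a protein sequence and across linkers. Negative Z-scores can be read as non-binding.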
# [2] = biological target: Fuc(a1-2)Gal(b1-3)GalNAc
# Procedure, shortened: as §1
# [3] = biological target: Fuc(a1-2)Gal(b1-3)GalNAc(a1-3)[Fuc(a1-2)]Gal(b1-4)Glc
# Procedure, shortened: as §1
# [4] = biological target: Fuc(a1-2)Gal(b1-3)GalNAc(a1-3)[Fuc(a1-2)]Gal(b1-4)GlcNAc
# Procedure, shortened: as §1
# [5] = biological target: Fuc(a1-2)Gal(b1-3)GalNAc(b1-3)Gal
# Procedure, shortened: as §1
# [6] = biological target: Fuc(a1-2)Gal(b1-3)GalNAc(b1-3)Gal(a1-4)Gal(b1-4)Glc
# Procedure, shortened: as §1
# [7] = biological target: Fuc(a1-2)Gal(b1-3)GalNAc(b1-4)[Neu5Ac(a2-3)]Gal(b1-4)Glc
# Procedure, shortened: as §1
# [8] = biological target: Fuc(a1-2)Gal(b1-3)GlcNAc
# Procedure, shortened: as §1
# [9] = biological target: Fuc(a1-2)Gal(b1-3)GlcNAc(b1-2)Man(a1-3)[Fuc(a1-2)Gal(b1-3)GlcNAc(b1-2)Man(a1-6)]Man(b1-4)GlcNAc(b1-4)GlcNAc
# Procedure, shortened: as §1
# [10] = biological target: Fuc(a1-2)Gal(b1-3)GlcNAc(b1-2)Man(a1-3)[Fuc(a1-2)Gal(b1-3)GlcNAc(b1-2)Man(a1-6)]Man(b1-4)GlcNAc(b1-4)[Fuc(a1-6)]GlcNAc
# Procedure, shortened: as §1
# [11] = biological target: Fuc(a1-2)Gal(b1-3)GlcNAc(b1-3)Gal(b1-4)Glc
# Procedure, shortened: as §1
# [12] = biological target: Fuc(a1-2)Gal(b1-3)GlcNAc(b1-3)GalNAc
# Procedure, shortened: as §1
# [13] = biological target: Fuc(a1-2)Gal(b1-3)GlcNAc(b1-3)[Fuc(a1-2)Gal(b1-3)GlcNAc(b1-6)]GalNAc
# Procedure, shortened: as §1
# [14] = biological target: Fuc(a1-2)Gal(b1-3)GlcNAc(b1-3)[Gal(b1-4)GlcNAc(b1-6)]Gal(b1-4)Glc
# Procedure, shortened: as §1
# [15] = biological target: Fuc(a1-2)Gal(b1-3)GlcNAc(b1-3)[Neu5Ac(a2-6)Gal(b1-4)GlcNAc(b1-6)]Gal(b1-4)Glc
# Procedure, shortened: as §1
# [16] = biological target: Fuc(a1-2)Gal(b1-3)GlcNAc6S
# Procedure, shortened: as §1
# [17] = biological target: Fuc(a1-2)Gal(b1-3)[Fuc(a1-4)]GlcNAc
# Procedure, shortened: as §1
# [18] = biological target: Fuc(a1-2)Gal(b1-3)[Fuc(a1-4)]GlcNAc(b1-2)Man(a1-3)[Fuc(a1-2)Gal(b1-3)[Fuc(a1-4)]GlcNAc(b1-2)Man(a1-3)]Man(b1-4)GlcNAc(b1-4)GlcNAc
# Procedure, shortened: as §1
# [19] = biological target: Fuc(a1-2)Gal(b1-3)[Fuc(a1-4)]GlcNAc(b1-2)Man(a1-3)[Fuc(a1-2)Gal(b1-3)[Fuc(a1-4)]GlcNAc(b1-2)Man(a1-6)]Man(b1-4)GlcNAc(b1-4)[Fuc(a1-6)]GlcNAc(b1-4)[Fuc(a1-6)]GlcNAc
# Procedure, shortened: as §1
# [20] = biological target: Fuc(a1-2)Gal(b1-3)[Fuc(a1-4)]GlcNAc(b1-3)[Fuc(a1-3)[Gal(b1-4)]GlcNAc(b1-6)]Gal(b1-4)Glc
# Procedure, shortened: as §1
# [21] = biological target: Fuc(a1-2)Gal(b1-3)[Fuc(a1-4)]GlcNAc(b1-3)[Gal(b1-4)GlcNAc(b1-6)]Gal(b1-4)Glc
# Procedure, shortened: as §1
# [22] = biological target: Fuc(a1-2)Gal(b1-4)Fuc(a1-3)]GlcNAc(b1-2)Man(a1-3)[Fuc(a1-2)Gal(b1-4)[Fuc(a1-3)]GlcNAc(b1-2)Man(a1-6)]Man(b1-4)GlcNAc(b1-4)GlcNAc
# Procedure, shortened: as §1
# [23] = biological target: Fuc(a1-2)Gal(b1-4)Glc
# Procedure, shortened: as §1
# [24] = biological target: Fuc(a1-2)Gal(b1-4)Glc6S
# Procedure, shortened: as §1
# [25] = biological target: Fuc(a1-2)Gal(b1-4)GlcNAc
# Procedure, shortened: as §1
# [26] = biological target: Fuc(a1-2)Gal(b1-4)GlcNAc(b1-2)Man
# Procedure, shortened: as §1
# [27] = biological target: Fuc(a1-2)Gal(b1-4)GlcNAc(b1-2)Man(a1-3)[Fuc(a1-2)Gal(b1-4)GlcNAc(b1-2)Man(a1-6)]Man(b1-4)GlcNAc(b1-4)GlcNAc
# Procedure, shortened: as §1
# [28] = biological target: Fuc(a1-2)Gal(b1-4)GlcNAc(b1-2)Man(a1-3)[Fuc(a1-2)Gal(b1-4)GlcNAc(b1-2)Man(a1-6)]Man(b1-4)GlcNAc(b1-4)[Fuc(a1-6)]GlcNAc
# Procedure, shortened: as §1
# [29] = biological target: Fuc(a1-2)Gal(b1-4)GlcNAc(b1-2)[Fuc(a1-2)Gal(b1-4)GlcNAc(b1-4)]Man(a1-3)[Fuc(a1-2)Gal(b1-4)GlcNAc(b1-2)Man(a1-6)]Man(b1-4)GlcNAc(b1-4)GlcNAc
# Procedure, shortened: as §1
# [30] = biological target: Fuc(a1-2)Gal(b1-4)GlcNAc(b1-3)Gal(b1-4)GlcNAc
# Procedure, shortened: as §1
# [31] = biological target: Fuc(a1-2)Gal(b1-4)GlcNAc(b1-3)Gal(b1-4)GlcNAc(b1-2)Man(a1-3)[Fuc(a1-2)Gal(b1-4)GlcNAc(b1-3)Gal(b1-4)GlcNAc(b1-2)Man(a1-6)]Man(b1-4)GlcNAc(b1-4)GlcNAc
# Procedure, shortened: as §1
# [32] = biological target: Fuc(a1-2)Gal(b1-4)GlcNAc(b1-3)Gal(b1-4)GlcNAc(b1-3)Gal(b1-4)GlcNAc
# Procedure, shortened: as §1
# [33] = biological target: Fuc(a1-2)Gal(b1-4)GlcNAc(b1-3)GalNAc
# Procedure, shortened: as §1
# [34] = biological target: Fuc(a1-2)Gal(b1-4)GlcNAc(b1-3)[Fuc(a1-2)Gal(b1-4)GlcNAc(b1-6)]GalNAc
# Procedure, shortened: as §1
# [35] = biological target: Fuc(a1-2)Gal(b1-4)GlcNAc(b1-3)[Fuc(a1-3)[Gal(b1-4)]GlcNAc(b1-6)]Gal(b1-4)Glc
# Procedure, shortened: as §1
# [36] = biological target: Fuc(a1-2)Gal(b1-4)GlcNAc(b1-6)GalNAc
# Procedure, shortened: as §1
# [37] = biological target: Fuc(a1-2)Gal(b1-4)GlcNAc6S
# Procedure, shortened: as §1
# [38] = biological target: Fuc(a1-2)Gal(b1-4)[Fuc(a1-3)]GlcNAc
# Procedure, shortened: as §1
# [39] = biological target: Fuc(a1-2)Gal(b1-4)[Fuc(a1-3)]GlcNAc(b1-2)Man(a1-3)[Fuc(a1-2)Gal(b1-4)[Fuc(a1-3)]GlcNAc(b1-2)Man(a1-6)]Man(b1-4)GlcNAc(b1-4)[Fuc(a1-6)]GlcNAc
# Procedure, shortened: as §1
# [40] = biological target: Fuc(a1-2)Gal(b1-4)[Fuc(a1-3)]GlcNAc(b1-2)[Fuc(a1-2)Gal(b1-4)[Fuc(a1-3)]GlcNAc(b1-4)]Man(a1-3)[Fuc(a1-2)Gal(b1-4)[Fuc(a1-3)]GlcNAc(b1-2)Man(a1-6)]Man(b1-4)GlcNAc(b1-4)GlcNAc
# Procedure, shortened: as §1
# [41] = biological target: Fuc(a1-2)Gal(b1-4)[Fuc(a1-3)]GlcNAc(b1-3)Gal(b1-4)[Fuc(a1-3)]GlcNAc
# Procedure, shortened: as §1
# [42] = biological target: Fuc(a1-2)Gal(b1-4)[Fuc(a1-3)]GlcNAc(b1-3)Gal(b1-4)[Fuc(a1-3)]GlcNAc(b1-3)Gal(b1-4)[Fuc(a1-3)]GlcNAc
# Procedure, shortened: as §1
# [43] = biological target: Fuc(a1-2)Gal(b1-4)[Fuc(a1-3)]GlcNAc(b1-3)GalNAc
# Procedure, shortened: as §1
# [44] = biological target: Fuc(a1-2)Gal(b1-4)[Fuc(a1-3)]GlcNAc(b1-3)[Neu5Ac(a2-6)Gal(b1-4)GlcNAc(b1-6)]Gal(b1-4)Glc
# Procedure, shortened: as §1
# [45] = biological target: Fuc(a1-2)Gal3S(b1-4)GlcNAc
# Procedure, shortened: as §1
binder,measurement,setting,value
B1,glycan array binding signal (z-score),[1],-0.259
same,glycan array binding signal (z-score),[2],-0.434
same,glycan array binding signal (z-score),[3],-0.205
same,glycan array binding signal (z-score),[4],-0.111
same,glycan array binding signal (z-score),[5],-0.266
same,glycan array binding signal (z-score),[6],-0.399
same,glycan array binding signal (z-score),[7],-0.453
same,glycan array binding signal (z-score),[8],-0.264
same,glycan array binding signal (z-score),[9],-0.051
same,glycan array binding signal (z-score),[10],-0.243
same,glycan array binding signal (z-score),[11],-0.433
same,glycan array binding signal (z-score),[12],-0.456
same,glycan array binding signal (z-score),[13],-0.415
same,glycan array binding signal (z-score),[14],-0.283
same,glycan array binding signal (z-score),[15],-0.37
same,glycan array binding signal (z-score),[16],-0.374
same,glycan array binding signal (z-score),[17],-0.463
same,glycan array binding signal (z-score),[18],-0.108
same,glycan array binding signal (z-score),[19],-0.401
same,glycan array binding signal (z-score),[20],-0.249
same,glycan array binding signal (z-score),[21],-0.183
same,glycan array binding signal (z-score),[22],-0.233
same,glycan array binding signal (z-score),[23],-0.408
same,glycan array binding signal (z-score),[24],-0.391
same,glycan array binding signal (z-score),[25],-0.239
same,glycan array binding signal (z-score),[26],-0.047
same,glycan array binding signal (z-score),[27],-0.119
same,glycan array binding signal (z-score),[28],-0.175
same,glycan array binding signal (z-score),[29],-0.277
same,glycan array binding signal (z-score),[30],-0.175
same,glycan array binding signal (z-score),[31],-0.126
same,glycan array binding signal (z-score),[32],-0.383
same,glycan array binding signal (z-score),[33],-0.105
same,glycan array binding signal (z-score),[34],-0.442
same,glycan array binding signal (z-score),[35],-0.396
same,glycan array binding signal (z-score),[36],-0.421
same,glycan array binding signal (z-score),[37],-0.421
same,glycan array binding signal (z-score),[38],-0.405
same,glycan array binding signal (z-score),[39],-0.288
same,glycan array binding signal (z-score),[40],-0.337
same,glycan array binding signal (z-score),[41],-0.23
same,glycan array binding signal (z-score),[42],0.141
same,glycan array binding signal (z-score),[43],-0.393
same,glycan array binding signal (z-score),[44],-0.454
same,glycan array binding signal (z-score),[45],-0.445
